*1 amine or outer side, *2 acyl side, *3 side chain or, on linkers, in order; H or OH if unused. Where a SMILES comes first, the peptide text is derived from it. [ ]: non-standard residue; d: D form. The star is where a group is joined. ξ: configuration not given here. Benzoyl(2-COOH-4,5-Cl2) = O=C(O)c1cc(Cl)c(Cl)cc1C(=O)*; Pro(3S,4R-CMe2) = CC1(C)[C@H]2[C@@H](C(=O)O)NC[C@H]21; Pro(trans-4-Ph) = O=C(O)[C@@H]1C[C@@H](c2ccccc2)CN1; Phenylacetyl(4-CF3) = O=C(Cc1ccc(C(F)(F)F)cc1)*; Pro(4,4-S(CH2)3S) = O=C(O)[C@@H]1CC2(CN1)SCCCS2; Benzoyl(4-COOH) = O=C(O)c1ccc(C(=O)*)cc1; Benzoyl(2-COOH) = O=C(O)c1ccccc1C(=O)*; Isobutyloxycarbonyl = CC(C)COC(=O)*; X8 = O=C(C(=O)[*:2])C(CC1CC1)N[*:1]; ξPhg(3-Cl) = NC(C(=O)O)c1cccc(Cl)c1; X15 = CC(=O)Nc1ccc(S(=O)(=O)*)cc1; X4 = CCCCC(N[*:1])C(=O)C(=O)[*:2]; Hyp = O=C(O)[C@@H]1C[C@@H](O)CN1; X2 = CCCC(N[*:1])C(=O)C(=O)[*:2]; Chg = N[C@H](C(=O)O)C1CCCCC1; Phg = N[C@H](C(=O)O)c1ccccc1; Tle = CC(C)(C)[C@H](N)C(=O)O; X13 = c1ccc(-c2ccccc2C*)cc1; X76 = C#Cc1ccc(OC(=O)*)cc1; ξAad = NC(CCCC(=O)O)C(=O)O; ξChg = NC(C(=O)O)C1CCCCC1; ξPhg = NC(C(=O)O)c1ccccc1; Carboxymethyl = O=C(O)C*; Orn = NCCC[C@H](N)C(=O)O; X34 = Cc1cccc(CC(=O)*)c1; PhAc = O=C(Cc1ccccc1)*; Boc = CC(C)(C)OC(=O)*; ξL = CC(C)CC(N)C(=O)O; ξNle = CCCCC(N)C(=O)O; ξhSer = NC(CCO)C(=O)O; ξV = CC(C)C(N)C(=O)O; N(Me)OMe = CON(C)*; ξP = O=C(O)C1CCCN1; Bn = c1ccc(C*)cc1; tBu = CC(C)(C)*; MEM = COCCOC*
Biological target: HCV NS3/NS4A protease (strain 1a) (Hepatitis C virus genotype 1a, UniProt P27958)
Assay: biochemical
Conditions: Compounds prepared by Solid Phase Synthesis, Table 3; read-out: Ki* CLASS

Compound | Ki [nM]
CCCC(NC(=O)[C@@H]1CCCN1C(=O)C(NC(=O)OCC(C)C)C(C)C)C(=O)C(=O)NCC(=O)NC(CCCC(=O)O)C(N)=O (stereo partly shown) (Isobutyloxycarbonyl-[ξV]P[X2]G[ξAad]-NH2) | > 1000
CCCC(NC(=O)[C@@H]1C[C@@H](OC(C)(C)C)CN1C(=O)[C@@H](NC(=O)Cc1ccccc1)C1CCCCC1)C(=O)C(=O)NCC(=O)NC(C(N)=O)c1cccc(Cl)c1 (stereo partly shown) (PhAc-[Chg][Hyp](tBu)[X2]G[ξPhg(3-Cl)]-NH2) | 101 to 1000
CC(C)(C)OC(=O)N[C@H](C(=O)N1CCCC1C(=O)NC(CC1CC1)C(=O)C(=O)NCC(=O)N[C@H](C(N)=O)c1ccccc1)C1CCCCC1 (stereo partly shown) (Boc-[Chg][ξP][X8]G[Phg]-NH2) | > 1000
CCCC(NC(=O)[C@@H]1C[C@@H](OCC(=O)O)CN1C(=O)C(NC(=O)OCC(C)C)C(C)C)C(=O)C(=O)NCC(=O)NC(CCO)C(N)=O (stereo partly shown) (Isobutyloxycarbonyl-[ξV][Hyp](Carboxymethyl)[X2]G[ξhSer]-NH2) | > 1000
CCCCC(NC(=O)CNC(=O)C(=O)C(CCC)NC(=O)[C@@H]1C[C@@H](OC(C)(C)C)CN1C(=O)C(NC(=O)Cc1ccc(C(F)(F)F)cc1)C1CCCCC1)C(N)=O (stereo partly shown) ({Phenylacetyl(4-CF3)}-[ξChg][Hyp](tBu)[X2]G[ξNle]-NH2) | 101 to 1000
CCCC(NC(=O)[C@@H]1C[C@@H](OCc2ccccc2)CN1C(=O)[C@H](CCCNC(=O)c1ccc(C(=O)O)cc1)NC(=O)OCC(C)C)C(=O)C(=O)NCC(=O)N[C@H](C(N)=O)c1ccccc1 (stereo partly shown) (Isobutyloxycarbonyl-[Orn](Benzoyl(4-COOH))[Hyp](Bn)[X2]G[Phg]-NH2) | 101 to 1000
CCCC(NC(=O)[C@@H]1CCCN1C(=O)C(NC(=O)OCC(C)C)C(C)C)C(=O)C(=O)NCC(=O)NC(CC(C)C)C(N)=O (stereo partly shown) (Isobutyloxycarbonyl-[ξV]P[X2]G[ξL]-NH2) | > 1000
CCCCC(NC(=O)CNC(=O)C(=O)C(CCC)NC(=O)[C@@H]1C[C@@H](OCOCCOC)CN1C(=O)C(NC(=O)c1ccccc1C(=O)O)C1CCCCC1)C(N)=O (stereo partly shown) ({Benzoyl(2-COOH)}-[ξChg][Hyp](MEM)[X2]G[ξNle]-NH2) | 101 to 1000
CCCCC(NC(=O)CNC(=O)C(=O)C(CCC)NC(=O)[C@@H]1C[C@@H](OCC(=O)O)CN1C(=O)C(NC(=O)Cc1cccc(C)c1)C1CCCCC1)C(N)=O (stereo partly shown) (X34-[ξChg][Hyp](Carboxymethyl)[X2]G[ξNle]-NH2) | > 1000

Same assay, conditions: HCV protease continuous assay results, Table 1; read-out: Ki* Range

Compound | Ki [nM]
CCCC(NC(=O)[C@@H]1C[C@@H](OC(C)(C)C)CN1C(=O)[C@@H](NC(=O)OCC(C)C)C(C)(C)C)C(=O)C(=O)NCC(=O)OCc1ccccc1 (stereo partly shown) [Example 252] | > 1000
CCCC(NC(=O)[C@@H]1CC2(CN1C(=O)[C@@H](NC(=O)OCC(C)C)[C@@H](C)OCc1ccccc1-c1ccccc1)SCCCS2)C(=O)C(=O)NCC(=O)N[C@H](C(=O)N(C)C)c1ccccc1 (stereo partly shown) [Example 145] (Isobutyloxycarbonyl-T(X13)[Pro(4,4-S(CH2)3S)][X2]G[Phg]-NMe2) | > 1000
CCCCC(NC(=O)[C@@H]1C[C@@H](OC(C)(C)C)CN1C(=O)[C@@H](NC(=O)OCC(C)C)C(C)(C)C)C(=O)C(=O)NCC(=O)N[C@H](CNC(C)=O)c1ccccc1 (stereo partly shown) [Example 272] | > 1000
CCCC(NC(=O)[C@@H]1CC2(CN1C(=O)[C@@H](NC(=O)c1cc(Cl)c(Cl)cc1C(=O)O)C1CCCCC1)SCCCS2)C(=O)C(=O)NCC(=O)NC(C(=O)O)c1ccccc1 (stereo partly shown) [Example 176] ({Benzoyl(2-COOH-4,5-Cl2)}-[Chg][Pro(4,4-S(CH2)3S)][X2]G[ξPhg]-OH) | 101 to 1000
C=CCCC(NC(=O)[C@@H]1[C@@H]2[C@H](CN1C(=O)[C@@H](NC(=O)OC(C)(C)C)C(C)(C)C)C2(C)C)C(=O)C(=O)NCC1CC1 (stereo partly shown) [Example 352] | > 1000
CCCC(NC(=O)[C@@H]1CC2(CN1C(=O)[C@@H](NC(=O)OCC(C)C)C(C)(C)C)SCCCS2)C(=O)C(=O)NCC(=O)NC(C(=O)O)c1ccccc1 (stereo partly shown) [Example 131] (Isobutyloxycarbonyl-[Tle][Pro(4,4-S(CH2)3S)][X2]G[ξPhg]-OH) | 1 to 100
CCCCC(NC(=O)[C@@H]1CC2(CN1C(=O)[C@@H](NC(=O)OCC(C)C)C(C)(C)C)SCCCS2)C(=O)C(=O)NCC(=O)NC(C(=O)O)c1ccccc1 (stereo partly shown) [Example 183] (Isobutyloxycarbonyl-[Tle][Pro(4,4-S(CH2)3S)][X4]G[ξPhg]-OH) | 1 to 100
C=CCCNC(=O)C(=O)C(CCCC)NC(=O)[C@@H]1[C@@H]2[C@H](CN1C(=O)[C@@H](NC(=O)OC(C)(C)C)C(C)(C)C)C2(C)C (stereo partly shown) [Example 361] | 101 to 1000
CCCC(NC(=O)[C@@H]1CC2(CN1C(=O)[C@@H](NS(=O)(=O)c1ccc(NC(C)=O)cc1)C1CCCCC1)SCCCS2)C(=O)C(=O)NCC(=O)NC(C(=O)O)c1ccccc1 (stereo partly shown) [Example 123] (X15-[Chg][Pro(4,4-S(CH2)3S)][X2]G[ξPhg]-OH) | 1 to 100
CCCC(NC(=O)[C@@H]1C[C@@H](c2ccccc2)CN1C(=O)[C@@H](NC(=O)OC(C)(C)C)C1CCCCC1)C(=O)C(=O)NCC(=O)N[C@H](C(=O)OC)c1ccccc1 (stereo partly drawn) [Example 68] (Boc-[Chg][Pro(trans-4-Ph)][X2]G[Phg]-OMe) | 101 to 1000
CCCC(NC(=O)[C@@H]1CC2(CN1C(=O)[C@@H](NC(=O)[C@H](CC(C)C)NC(C)=O)C1CCCCC1)SCCCS2)C(=O)C(=O)NCC(=O)NC(C(=O)N(C)OC)c1ccccc1 (stereo partly shown) [Example 120] (Ac-L[Chg][Pro(4,4-S(CH2)3S)][X2]G[ξPhg]-{N(Me)OMe}) | 1 to 100

Same assay, conditions: Ki* Range, Table 5; HCV NS3/NS4A protease, spectrophotometric assay, 30° C., pH 6.5

Compound | Ki [nM]
C#Cc1ccc(OC(=O)N[C@H](C(=O)N2C[C@@H]3[C@H]([C@H]2C(=O)NC(CCCC)C(=O)C(=O)NCC(=O)N[C@H](C(=O)N(C)C)c2ccccc2)C3(C)C)C(C)(C)C)cc1 (stereo partly drawn) (X76-[Tle][Pro(3S,4R-CMe2)][X4]G[Phg]-NMe2) | 101 to 1000

Same assay, conditions: Table 4; HCV NS3/NS4A protease, spectrophotometric assay, 30° C., pH 6.5; read-out: Ki* Range

Ki [nM] | Compound
> 1000 | CCCC(NC(=O)[C@@H]1CC(C)(C)CN1C(=O)[C@@H](NC(=O)OCC(C)C)C1CCCCC1)C(=O)C(=O)N[C@@H](C(C)=O)C(=O)N[C@H](C(=O)O)c1ccccc1 (stereo partly shown)
